# Experimental data as given in the BET-seq Pho4 binding data (Le et al. 2018).
# Some of the results follow. These are noisy estimates, calculated here from bound and input reads.
# Biological target: T1, Pho4 (S. cerevisiae) (UniProt P07270)
# T1 sequence: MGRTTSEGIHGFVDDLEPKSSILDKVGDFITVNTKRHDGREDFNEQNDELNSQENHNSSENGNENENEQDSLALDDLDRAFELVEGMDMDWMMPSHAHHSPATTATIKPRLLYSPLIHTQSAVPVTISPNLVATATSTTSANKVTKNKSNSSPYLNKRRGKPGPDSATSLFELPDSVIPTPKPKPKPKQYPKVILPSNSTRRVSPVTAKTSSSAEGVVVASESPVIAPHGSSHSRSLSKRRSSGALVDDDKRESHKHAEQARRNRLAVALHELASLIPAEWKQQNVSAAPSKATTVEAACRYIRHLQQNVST
# Test: relative binding free energy (BET-seq); higher = weaker binding
# Conditions: reference: library average
row,Sequence,relative binding free energy
1,AGTGTCACGTGGCTGG,0 kcal/mol
2,GTGCACACGTGCGGGT,0.01 kcal/mol
3,TTTTTCACGTGCGGTG,0.26 kcal/mol
4,AGTTCCACGTGGTGTG,0.09 kcal/mol
5,AATGTCACGTGTGGAG,0.18 kcal/mol
6,ATACTCACGTGTTGGT,0.13 kcal/mol
7,AGCATCACGTGGGGGG,-0.02 kcal/mol
8,CAATTCACGTGTAGGG,0.24 kcal/mol
9,GGCTACACGTGTTTTG,0.09 kcal/mol
10,AGCGGCACGTGGAGGA,-0.1 kcal/mol
11,AGGGGCACGTGATTCT,-0.04 kcal/mol
12,TCGGCCACGTGGGGTT,-0.19 kcal/mol
13,GTGGCCACGTGGAAGG,-0.02 kcal/mol
14,TGAGGCACGTGTTGGG,-0.05 kcal/mol
15,TGTGCCACGTGGAGTA,-0.18 kcal/mol
16,GTACTCACGTGGGAGT,0 kcal/mol
17,CTGTACACGTGTGTAG,-0.05 kcal/mol
18,TGTGCCACGTGATTTT,0.16 kcal/mol
19,TCGGTCACGTGAATAG,0.37 kcal/mol
20,TGGAGCACGTGTACGG,-0.17 kcal/mol
21,AGATGCACGTGAGCGT,0.1 kcal/mol
22,GCTTTCACGTGGGCAT,0.24 kcal/mol
23,GGATGCACGTGGGGTC,-0.1 kcal/mol

row,Sequence,relative binding free energy
1,ATTTGCACGTGGGATA,-0.17 kcal/mol
2,ACGGGCACGTGAGATG,0.14 kcal/mol
3,ATTAGCACGTGGGGCA,-0.21 kcal/mol
4,CGGATCACGTGTGCGG,0.01 kcal/mol
5,GTTTGCACGTGCGGAG,0.15 kcal/mol
6,ATAGTCACGTGGGGGG,-0.05 kcal/mol
7,TGGCTCACGTGGCCGG,0.1 kcal/mol
8,TTATACACGTGTTCGT,-0.1 kcal/mol
9,GTGGACACGTGTCTGT,0.12 kcal/mol
10,ATTATCACGTGAGCGT,0.17 kcal/mol
11,GCTTTCACGTGGGTAG,0.07 kcal/mol
12,TATAGCACGTGTCGGT,-0.19 kcal/mol
13,GGCATCACGTGTATTG,0.17 kcal/mol
14,AGTAGCACGTGTAAGA,0.14 kcal/mol
15,TTATGCACGTGTATAG,0.04 kcal/mol
16,GGGTCCACGTGGTAGT,-0.01 kcal/mol
17,ATAGTCACGTGTACAT,0.18 kcal/mol
18,GGTTACACGTGGTACA,0.12 kcal/mol
19,GGTTACACGTGAGTGG,0.35 kcal/mol
20,TGACTCACGTGTAGTG,0 kcal/mol
21,TGCTGCACGTGAAGGG,0.26 kcal/mol
22,GATTGCACGTGAGGAA,0.21 kcal/mol
23,TTCTGCACGTGTTTTG,-0.01 kcal/mol

row,Sequence,relative binding free energy
1,CTATGCACGTGGCGTG,-0.18 kcal/mol
2,GTGGCCACGTGTTGTG,0.07 kcal/mol
3,AAAGGCACGTGTGGAA,0.04 kcal/mol
4,TGCGTCACGTGAGAGG,0.24 kcal/mol
5,AGAGGCACGTGGTATA,-0.09 kcal/mol
6,TGTTACACGTGGGAGG,0.03 kcal/mol
7,AATGTCACGTGGTTAA,-0.05 kcal/mol
8,CTTTACACGTGTCGGT,0.06 kcal/mol
9,ATGCGCACGTGGGGAT,-0.28 kcal/mol
10,GTCTTCACGTGTTAGG,0.31 kcal/mol
11,TGCAGCACGTGTGGGG,-0.19 kcal/mol
12,ATGGCCACGTGGTCGT,-0.14 kcal/mol
13,GCGATCACGTGATGGG,0.2 kcal/mol
14,TGTATCACGTGGCGTT,0.08 kcal/mol
15,AGGTTCACGTGTATAG,0.21 kcal/mol
16,TTGTCCACGTGTGGAG,-0.02 kcal/mol
17,GCGGCCACGTGTGGAG,0.06 kcal/mol
18,CGTGGCACGTGGGAAT,-0.18 kcal/mol
19,AACGGCACGTGGGTTT,-0.25 kcal/mol
20,GTTCTCACGTGCAGGG,0.39 kcal/mol
21,TGGTACACGTGACAGA,0.32 kcal/mol
22,CGCGACACGTGTGGGT,-0.05 kcal/mol
23,TGGAACACGTGTAGTA,0.15 kcal/mol

row,Sequence,relative binding free energy
1,ATTGACACGTGGAATT,0.15 kcal/mol
2,CGTAACACGTGATGTA,0.12 kcal/mol
3,TGGTGCACGTGTAGGT,0.06 kcal/mol
4,AGTTCCACGTGGTTTT,0.03 kcal/mol
5,GGCGACACGTGTGTTA,0.14 kcal/mol
6,TCTCGCACGTGGGGGT,-0.08 kcal/mol
7,AATTTCACGTGATTTG,0.42 kcal/mol
8,TTATACACGTGCCGGT,0.05 kcal/mol
9,GGTGACACGTGTTAGA,-0.06 kcal/mol
10,ATATGCACGTGAGAGT,0.18 kcal/mol
11,ATTGGCACGTGTAATC,0.01 kcal/mol
12,AGAGGCACGTGAAGGT,0.05 kcal/mol
13,TGTTACACGTGCTATT,0 kcal/mol
14,ATGGGCACGTGTAGCT,-0.15 kcal/mol
15,GGATACACGTGGCTGT,0.05 kcal/mol
16,GGAATCACGTGTAAAG,0.39 kcal/mol
17,AACGGCACGTGACGTG,0.14 kcal/mol
18,AGGTGCACGTGCATAG,-0.16 kcal/mol
19,ATGTTCACGTGTAGCT,0.24 kcal/mol
20,TGAGTCACGTGTGCGG,0.07 kcal/mol
21,TCTTGCACGTGTACGG,0.03 kcal/mol
22,GGCAGCACGTGAATGT,0.29 kcal/mol
23,TAGTTCACGTGATTCT,0.26 kcal/mol

row,Sequence,relative binding free energy
1,TGTGTCACGTGAGCTG,0.28 kcal/mol
2,CGTATCACGTGCTTGT,0.12 kcal/mol
3,AGCTCCACGTGGGGTT,-0.09 kcal/mol
4,TGGATCACGTGTTTGT,0.12 kcal/mol
5,GTTGGCACGTGCGGCA,-0.05 kcal/mol
6,TAAGCCACGTGTCGGG,0.02 kcal/mol
7,TTGCTCACGTGATCGT,0.16 kcal/mol
8,ACTGACACGTGAGGGT,0.2 kcal/mol
9,TTTTTCACGTGCAATA,0.17 kcal/mol
10,TGATACACGTGTTTTT,0.06 kcal/mol
11,TTGTGCACGTGATTTA,0.2 kcal/mol
12,CGTTGCACGTGTCGTT,-0.01 kcal/mol
13,TTTGACACGTGCTTGG,-0.11 kcal/mol
14,GGGTGCACGTGTTAGC,-0.06 kcal/mol
15,GAGGACACGTGAGGTA,0.3 kcal/mol
16,GATGTCACGTGGTGAT,0.17 kcal/mol
17,TTTGGCACGTGAAGTC,0.29 kcal/mol
18,TTTGCCACGTGCTGTA,-0.11 kcal/mol
19,TCGGCCACGTGATGTG,0.12 kcal/mol
20,TGGAACACGTGAAGGG,0.24 kcal/mol
21,AGGGTCACGTGTGCAG,0.06 kcal/mol
22,TGGGTCACGTGGTCCG,-0.05 kcal/mol
23,GGTCGCACGTGAGTGG,0.08 kcal/mol
